The list shows a part of the results. Many values rest on one well or one pass, so single values are uncertain.
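Further: cells treated in 1,536-well plates, then fixed and DAPI-stained, with nuclei counted from automated high-throughput microscope images.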

This assay concerns A375. Put plainly: cell count relative to DMSO control; melanoma cells; higher = more viable cells. The settings on record: library dose: standard library concentration; 72 h.
Regarding `O=C(/C=C/c1cccnc1)NCCCCC1CCN(C(=O)c2ccccc2)CC1` + CS(=O)(=O)CCNCc1ccc(-c2ccc3ncnc(Nc4ccc(OCc5cccc(F)c5)c(Cl)c4)c3c2)o1 [lapatinib] (first compound 0.05 µM, partner dose 4 µM), the cell count is 132%.

Turning to `Cc1ccc(Nc2nccc(N(C)c3ccc4c(C)n(C)nc4c3)n2)cc1S(N)(=O)=O` [Pazopanib] + CC(C)(C)c1cnc(CSc2cnc(NC(=O)C3CCNCC3)s2)o1 [SNS-032] (first compound 2 µM, partner dose 0.05 µM), the cell count came out at 65.8%.

The molecule `Cc1ccc(Nc2nccc(N(C)c3ccc4c(C)n(C)nc4c3)n2)cc1S(N)(=O)=O` [Pazopanib] + Cn1nnc2c(C(N)=O)ncn2c1=O [temozolomide] (first compound 2 µM, partner dose 10 µM) had a cell count of 80.1%.

On to `Cc1ccc(Nc2nccc(N(C)c3ccc4c(C)n(C)nc4c3)n2)cc1S(N)(=O)=O` [Pazopanib] + CC(C)C[C@H](NC(=O)[C@H](Cc1ccccc1)NC(=O)c1cnccn1)B(O)O [Bortezomib] (first compound 2 µM, partner dose 0.005 µM), for which the cell count was 81.4%.

As for `Cc1ccc(Nc2nccc(N(C)c3ccc4c(C)n(C)nc4c3)n2)cc1S(N)(=O)=O` [Pazopanib] + O=C(CCCCCCC(=O)Nc1ccccc1)NO [vorinostat] (first compound 2 µM, partner dose 0.4 µM), the cell count stood at 121%.

`Cc1ccc(Nc2nccc(N(C)c3ccc4c(C)n(C)nc4c3)n2)cc1S(N)(=O)=O` [Pazopanib] + O=C(O)[C@@H]1[O][Sb](=[O])([O][Sb]2(=[O])[O][C@H]([C@H](O)CO)[C@H](O)[C@H](C(=O)O)[O]2)[O][C@H]([C@H](O)CO)[C@@H]1O [stibogluconate] (first compound 2 µM, partner dose 10 µM) showed a cell count of 85.1%.

Molecule `Cc1ccc(Nc2nccc(N(C)c3ccc4c(C)n(C)nc4c3)n2)cc1S(N)(=O)=O` [Pazopanib] + Cn1c(=O)n(-c2ccc(C(C)(C)C#N)cc2)c2c3cc(-c4cnc5ccccc5c4)ccc3ncc21 [NVP-BEZ235] (first compound 2 µM, partner dose 0.02 µM) displayed a cell count of 99.2%.

`O=C(/C=C/c1cccnc1)NCCCCC1CCN(C(=O)c2ccccc2)CC1` + O=C(Nc1cccc(Cl)c1)Nc1ncc(CCNc2ncnc3ccsc23)s1 [SNS314] (first compound 0.05 µM, partner dose 0.004 µM) came in with a cell count of 112%.

On to `CC1(C)CCC(c2ccc(Cl)cc2)=C(CN2CCN(c3ccc(C(=O)NS(=O)(=O)c4ccc(N[C@H](CCN5CCOCC5)CSc5ccccc5)c(S(=O)(=O)C(F)(F)F)c4)cc3)CC2)C1` + C[C@]1(O)C[C@@H](c2nc(-c3ccc4ccc(-c5ccccc5)nc4c3)c3c(N)nccn32)C1 [OSI906] (first compound 2 µM, partner dose 2 µM), for which the cell count is 46.2%.

The molecule `Cc1ccc(Nc2nccc(N(C)c3ccc4c(C)n(C)nc4c3)n2)cc1S(N)(=O)=O` [Pazopanib] + Nc1nc(F)nc2c1ncn2[C@@H]1O[C@H](CO)[C@@H](O)[C@@H]1O [fludarabine] (first compound 2 µM, partner dose 1 µM) had a cell count of 31.9%.

Molecule `Cc1ccc(Nc2nccc(N(C)c3ccc4c(C)n(C)nc4c3)n2)cc1S(N)(=O)=O` [Pazopanib] + COCC[n+]1c2c(n(Cc3cnccn3)c1C)C(=O)c1ccccc1C2=O [YM155] (first compound 2 µM, partner dose 0.002 µM) had a cell count of 67.2%.

Consider `Cc1ccc(Nc2nccc(N(C)c3ccc4c(C)n(C)nc4c3)n2)cc1S(N)(=O)=O` [Pazopanib] + Cn1cnc2c(F)c(Nc3ccc(Br)cc3Cl)c(C(=O)NOCCO)cc21 [selumetinib] (first compound 2 µM, partner dose 0.075 µM), for which the cell count worked out at 100%.

`CC1(C)CCC(c2ccc(Cl)cc2)=C(CN2CCN(c3ccc(C(=O)NS(=O)(=O)c4ccc(N[C@H](CCN5CCOCC5)CSc5ccccc5)c(S(=O)(=O)C(F)(F)F)c4)cc3)CC2)C1` + CN(NC(=O)CC(=O)NN(C)C(=S)c1ccccc1)C(=S)c1ccccc1 [STA4783] (first compound 2 µM, partner dose 0.03 µM) gave a cell count of 60.3%.

Take `CC1(C)CCC(c2ccc(Cl)cc2)=C(CN2CCN(c3ccc(C(=O)NS(=O)(=O)c4ccc(N[C@H](CCN5CCOCC5)CSc5ccccc5)c(S(=O)(=O)C(F)(F)F)c4)cc3)CC2)C1` + O=C(O)[C@@H]1[O][Sb](=[O])([O][Sb]2(=[O])[O][C@H]([C@H](O)CO)[C@H](O)[C@H](C(=O)O)[O]2)[O][C@H]([C@H](O)CO)[C@@H]1O [stibogluconate] (first compound 2 µM, partner dose 10 µM): the cell count came out at 56%.

The record behind these values is the supplement of paper PMC4604168 (melanoma cell lines).
